Measurements as given in PubChem BioAssay (NCI).
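Tested at 5 concentrations; 48 h exposure; 96-well plates; endpoints linearly interpolated, else capped at highest concentration. TGI is the concentration that stops growth completely.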 Some entries of the source have several records that differ or are many. The list is limited to them. An entry can have further records. The tests behind the records often covered other concentration ranges, which the source does not state; some values may only mark the edge of a range.

Key:
NCI-H460 lung = test: NCI anticancer screen, dose series, 48 h
HCT-15 colon = test: NCI anticancer screen, dose series, 48 h

## CN(C)CCCCCNc1c2ccccc2nc2cccc([N+](=O)[O-])c12
NCI-H460 lung
  TGI: 3.1 nM, 0.956 nM, 12.1 nM
HCT-15 colon
  TGI: 8.7 nM and > 100 nM
